# Assay results from PubChem BioAssay AID1347073 (National Center for Advancing Translational Sciences (NCATS), 2019).
# Screen size: about 45,000 compounds; about 200 (0.44%) were called active. Another 7% or so got no clear call; they are omitted. Calls come from the whole dose curve; as a rule, active = well fitted activation curve with a large enough effect; inconclusive = small, poorly fitted or top-dose-only effect; inactive = no such curve, though single readings can be large or run the other way. This is one part of the list.
# Test: qHTS of TDP-43 Inhibitors: NCGC Sytravon Library Screen; note: nearly all actives have a fitted effect of over 55% in size; for growth rescue (activation): 0% is about no effect
# Details: yeast TDP-43 toxicity rescue, BacTiter-Glo growth, 24 h; series mostly up to 46.1 µM; growth rescue (activation): at the top concentration
# Outline: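 TDP-43-expressing yeast, pregrown in raffinose, seeded at OD600 0.02 in galactose medium with compound for 24 hr at 30 deg C. Growth read by BacTiter-Glo luminescence, so rescue of toxicity appears as activation.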
# Potency is the fitted concentration of half-maximal effect.
SMILES,growth rescue (activation),Potency
COc1ccc(N2CCN(c3ccc([N+](=O)[O-])cc3Cl)CC2)cc1,inactive: 3.99%,–
Nc1n[nH]c(-c2cccc([N+](=O)[O-])c2)n1,inactive: 15.4%,–
O=C(Cn1cnc2ccccc2c1=O)NNC(=O)c1ccccc1F,inactive: 7.49%,–
COc1ccccc1CC(=O)Nc1ccc(S(=O)(=O)N2CCN(C)CC2)cc1,inactive: 12.3%,–
CCOC(=O)c1ccc2c(c1)C1C=CCC1C(C(=O)OCC)N2 (centres undefined),inactive: 17.5%,–
CN1CCN(S(=O)(=O)c2ccc(C(=O)NC3CCCCC3)cc2)CC1,inactive: 6.53%,–
CCOc1ccc(OCCCCOc2ccccc2C(C)=O)cc1,inactive: 18.2%,–
O=C(c1cc([N+](=O)[O-])ccc1N1CCN(S(=O)(=O)c2ccc(Cl)c(Cl)c2)CC1)N1CCOCC1,inactive: -2.48%,–
O=C(O)c1ccc(CN2C(=O)c3cccc4c([N+](=O)[O-])ccc(c34)C2=O)cc1,inactive: 1.14%,–
Cn1c(SCC(=O)NC2CCCCCC2)nnc1-c1cccs1,inactive: 23.3%,–
CN(C)CCn1cnc2c1c(=O)n(C)c(=O)n2C,inactive: 5.04%,–
CCCCNC(=O)c1ccc2nc(CC)c(N(CC)CCN(C)C)n2c1,inactive: 5.5%,–
O=[N+]([O-])c1ccc(/C=N/Nc2nc(NCc3ccccc3)nc(N3CCOCC3)n2)cc1,inactive: -2.74%,–
O=C(O)C1CC=CCC1C(=O)NCCCCc1ccccc1 (centres undefined),inactive: 5.21%,–
COC(=O)c1c(NC(C)=O)sc2c1CCCCC2,inactive: 7.5%,–
COc1cc(C(=O)OCC(=O)NC(C)CCc2ccccc2)cc(OC)c1OC (centres undefined),inactive: -15.5%,–
COc1ccc2[nH]c(=O)c(CN(C(=O)c3cccnc3)c3ccccc3C)cc2c1,inactive: -14.7%,–
COc1cccc(NC(=O)N2CCCC(C(=O)NC3CCCCC3C)C2)c1 (centres undefined),inactive: 18.4%,–
CCn1c(SCC(=O)Nc2ccc3c(c2)OCO3)nnc1C(C)C,inactive: -1.12%,–
COc1cc(NC(=O)c2cccc([N+](=O)[O-])c2)ccc1NC(=O)c1cc2ccccc2o1,inactive: -18%,–
COc1cccc(NC(=O)Nc2cccn(Cc3ccc(C)cc3)c2=O)c1,inactive: -1.79%,–
Cc1ccc(NC(=O)C2CC(O)CN2C(=O)OCc2ccccc2)c(C)c1 (centres undefined),inactive: -4.67%,–
O=C(Cc1ccccc1)Nc1ccc(Br)c(Cl)c1,inactive: 28.7%,–
COCCn1c(-c2cccs2)csc1=Nc1cccnc1,inactive: 0.255%,–
CCC(C)(C)NC(=O)CN(Cc1ccccc1)C(=O)CCC(=O)Nc1nccs1,inactive: -7.84%,–
CCC(C)Nc1nc(Cl)nc(N(C#N)CN2C(=O)c3ccccc3S2(=O)=O)n1 (centres undefined),inactive: 0.127%,–

SMILES,growth rescue (activation),Potency
O=S1(=O)CCC(NC(=S)NCCNC(=S)NC2CCS(=O)(=O)C2)C1 (centres undefined),inactive: 6.31%,–
COc1ccc(C(=O)NCc2ccc(S(N)(=O)=O)cc2)cc1[N+](=O)[O-],inactive: 12.5%,–
O=C(CN1C(=O)CSc2ccc(S(=O)(=O)N3CCOCC3)cc21)NCCCN1CCOCC1,inactive: -8.04%,–
COc1ccc(CNCCC(c2ccc(F)cc2)c2ccc(OC)cc2)cc1 (centres undefined),inactive: 12.8%,–
COc1ccc(OCCNS(=O)(=O)Cc2ccccc2)cc1,inactive: 6.64%,–
COc1cc(OC)cc(-c2nnc(SCC(=O)Nc3ccc(C(=O)O)cc3)s2)c1,inactive: 0.705%,–
Cc1ccc(S(=O)(=O)N2CCN(C(=O)COC(=O)c3cncc(Br)c3)CC2)c(C)c1,inactive: 11.9%,–
COc1ccc2c(-c3ccccc3)cc(SCC(N)=O)nc2c1,inactive: 24.3%,–
O=C(CC1C(=O)NCCN1Cc1ccc(Cl)c(F)c1)NCCc1cccnc1 (centres undefined),inactive: 6.72%,–
CNC(=S)N1CCN(C(c2ccccc2)c2ccccc2)CC1,inactive: 6.37%,–
O=C(O)Cc1sc(N/N=C\c2ccccc2)nc1-c1ccccc1,inactive: 5.25%,–
CC1CN(C(=O)COC(=O)c2cccc(S(=O)(=O)N3CCc4ccccc43)c2)CC(C)O1 (centres undefined),inactive: -2.13%,–
CC(=O)Nc1cccc(Nc2nc(-c3ccccc3)nc3ccccc23)c1,inactive: 19.1%,–
CCOCc1c(C(=O)Nc2ccc3nc(N4CCOCC4)sc3c2)oc2ccccc12,inactive: 26.7%,–
CC(C)(C)C(=O)NC1CCN(CC(=O)Nc2ccc3c(c2)OCO3)CC1,inactive: -20.2%,–
CCN(CC)C(=O)Cn1c(=O)n(Cc2ccc(F)cc2)c(=O)c2sccc21,inactive: 10.9%,–
CCc1ccc(OCC(=O)Nc2ccc(S(=O)(=O)Nc3ccccn3)cc2)cc1,inactive: 7.68%,–
Cc1c(C(=O)OCC[N+]2(C)CCCCC2)oc2ccccc12,inactive: -31%,–
Cc1cccc(C(=O)NNC(=O)Nc2ccccc2)c1,inactive: -3.76%,–
CCCCc1c(C)nc2ccccc2c1SCCC(=O)O,inactive: 15.4%,–
COc1ccccc1CNC(=O)CSc1nn2c(=O)c(C(C)(C)C)nnc2s1,inactive: 15.9%,–
C[C@@H]1CN(C2CCN(Cc3nc(CC4CC4)no3)CC2)C[C@H](C)O1,inactive: -2.32%,–
Cc1cccc(C)c1NC(=O)c1ccc2c(c1)CCN2S(C)(=O)=O,inactive: 5.18%,–
C/C(CC(=O)Nc1ccc(N(C)C)cc1)=N\NC(=O)c1ccc([N+](=O)[O-])cc1,inactive: 5.79%,–
O=C(CCc1ccccc1)NNC(=O)c1cc(Cl)ccc1O,inactive: 2.7%,–
O=C(Nc1cccc(C(F)(F)F)c1)Nc1cccs1,inactive: 15%,–

SMILES,growth rescue (activation),Potency
O=C(NC(Cc1ccccc1)C(=O)N1CCN(S(=O)(=O)c2ccccc2F)CC1)c1ccccc1 (centres undefined),inactive: 10.3%,–
COc1cc(C(C(=O)NC2CCCCC2)N(C(=O)Cc2c[nH]c3ccccc23)c2ccc(C)cc2)cc(OC)c1OC (centres undefined),inactive: -8.08%,–
O=C(CCN1C(=O)c2ccccc2C1=O)NC(=S)Nc1ccccc1,inactive: 20%,–
O=C(COC(=O)c1cc([N+](=O)[O-])ccc1N1CCCC1)Nc1ccccc1OC(F)F,inactive: 20.2%,–
O=C(Cn1c(C(F)(F)F)nc2ccccc21)N/N=C/c1ccco1,inactive: 9.39%,–
Cc1ccc(-n2c(SCC(=O)Nc3cc(S(=O)(=O)N4CCOCC4)ccc3Cl)nc3ccccc3c2=O)cc1,inactive: 2.97%,–
C/C(=N\Nc1nc(Cl)c(Cl)cc1Cl)c1ccc(S(=O)(=O)NCc2ccco2)cc1,inactive: 27%,–
COc1ccc(S(=O)(=O)N2CCCCC2)cc1NC(=O)Cn1cnc2c1c(=O)n(C)c(=O)n2C,inactive: 12.7%,–
O=C(NC12CC3CC(CC(C3)C1)C2)c1cncc(Br)c1,inactive: 6.52%,–
O=C(CSCc1ccc(Br)cc1)N=Nc1c(O)[nH]c2ccccc12,inactive: 7.58%,–
COc1ccc(OC)c(NC(=O)CCNS(=O)(=O)c2cccc3nsnc23)c1,inactive: 11.3%,–
Cc1c(Cl)cccc1NC(=O)CSc1sc2c(O)cc(=O)[nH]c2c1C#N,inactive: 7.95%,–
O=C1CN(C(=O)CSc2nnc(Nc3ccccc3)s2)c2ccccc2N1,inactive: 10.5%,–
COc1ccc(OC)c(C(=O)c2ccc(C(=O)N3CCN(Cc4csc(C)n4)CC3)cc2)c1,inactive: -14.5%,–
CC(=O)/C(N=Nc1ccc(C(=O)O)cc1)=C(\C)O,inactive: 19.5%,–
O=C(O)c1cc(-c2cc3ccccc3o2)nn1-c1ccccc1,inactive: 9.63%,–
Cc1cccc(NS(=O)(=O)c2ccc3[nH]c(=O)[nH]c3c2)c1C,inactive: 0.669%,–
CCOc1ccccc1NC(=O)CCNS(=O)(=O)c1cccc2nsnc12,inactive: -3.42%,–
Cc1cc(C)nc(N/N=C/c2cn[nH]c2-c2ccccc2)n1,inactive: 12.8%,–
CCOC(=O)c1cc(CC)sc1N1C(=O)CC(Sc2ncccc2C(=O)O)C1=O (centres undefined),inactive: -8.6%,–
O=C(CNC(=O)c1ccc2c(c1)OCCO2)N/N=C/c1ccc([N+](=O)[O-])cc1,inactive: -9.4%,–
CCOc1ccc(NC(=O)C/C(C)=N/NC(=O)COc2ccc(Br)cc2C)cc1,inactive: 16.3%,–
CC(/C=N/n1c(-c2cc(C)[nH]n2)n[nH]c1=S)=C\c1ccccc1,inactive: 20%,–
Cc1ccc(Cl)cc1-c1cc(C(=O)NCc2cc(C(F)(F)F)cc(C(F)(F)F)c2)[nH]n1,inactive: 3.29%,–
CCOc1ccccc1N1CCN(S(=O)(=O)c2cc(C)ccc2OC)CC1,inactive: 37.6%,–
Cc1[nH]c2ccccc2c1/C=N/NC(=O)CNC(=O)COc1ccccc1,inactive: -13.2%,–

SMILES,growth rescue (activation),Potency
Cc1ccccc1N1CCN(C2CCCN(C(=O)c3csc(C(C)C)n3)C2)CC1 (centres undefined),inactive: 6.93%,–
NS(=O)(=O)c1ccc(N/C=C\C(=O)c2cccc3ccccc23)cc1,inactive: 5.09%,–
O=C1NCCN(C(=O)CCc2nnc(-c3ccsc3)o2)C1c1ccc(F)cc1 (centres undefined),inactive: -10.3%,–
CCOc1cc(N2CCOCC2)c(OCC)cc1NC(=O)CN1CCN(Cc2ccc3c(c2)OCO3)CC1,inactive: 6.72%,–
Cc1ccc(S(=O)(=O)N2CCN(C(C)C(=O)N3CCCc4ccccc43)CC2)cc1 (centres undefined),inactive: 3.77%,–
O=C1CN(C(=O)/C=C/c2ccc(Cl)cc2)c2ccccc2N1,inactive: 18.3%,–
CCOC(=O)c1sc(SC)nc1N,inactive: 18.3%,–
OCc1ccccc1OCCCN1CCC(Cc2ccccc2)CC1,inactive: 2.1%,–
CCCCNC(=O)C1(C)CCN1C(=O)c1cccc2c1OCCO2 (centres undefined),inactive: -4.89%,–
C=CCNc1ncnc2c1ncn2[C@H]1CN(Cc2ccc3c(c2)OCO3)C[C@@H](CO)O1,inactive: 9.65%,–
Cc1ccc(S(=O)(=O)N2CCN(C(=O)N(C)C)CC2)cc1C,inactive: -4.98%,–
COc1ccc(CNC(=O)c2cc(=O)c3ccc(C)c(C)c3o2)cc1,inactive: 19.9%,–
Clc1ccc(OCCOCCOc2cccc3cccnc23)c(Br)c1,inactive: 0.338%,–
CC(NC(=O)c1ccccc1F)c1nnc(SCC(=O)NC2=NCCS2)n1C (centres undefined),inactive: -0.473%,–
CCCSc1nc2c3c(sc2c(=O)[nH]1)CC(C)(CC)OC3 (centres undefined),inactive: 2.98%,–
O=C(CN1C(=O)c2ccccc2C1=O)Nc1ccc(-c2nc3ccccc3o2)cc1,inactive: 23.7%,–
CC1Cc2ccccc2N1C(=O)COC(=O)c1c2c(nc3ccccc13)CCCCC2 (centres undefined),–,active: 14.1 µM
COc1cc(-c2nnc(SCC(=O)O)n2-c2ccccc2)cc(OC)c1OC,inactive: -3.28%,–
Cc1ccc(C)c(-c2cc(C(=O)Nc3cccnc3)c3ccccc3n2)c1,inactive: -6.32%,–
Cc1sc2ncn(CC(=O)N3CCN(c4ccccn4)CC3)c(=O)c2c1S(=O)(=O)N1CCC(C)CC1,inactive: 3.7%,–
CCC(C(=O)N1CCN(c2ccccn2)CC1)n1nc(C)n2c(cc3occc32)c1=O (centres undefined),inactive: -9.93%,–
CCn1nc(C(C)C(=O)O)c2ccccc2c1=O (centres undefined),inactive: 15.3%,–
Cc1ccc(C)c(NC(=S)Nc2cccc3cnccc23)c1,inactive: 5.87%,–
COc1ccc(CNC(=O)CN(C(=O)c2csnn2)c2ccc3c(c2)OCCO3)cc1,inactive: 8.34%,–
CC(=O)N(C)c1ccc(NC(=O)Nc2ccc(C)c(C)c2)cc1,inactive: -7.07%,–
CCOC(=O)C1Nc2ccc(Br)cc2C2C=CCC12 (centres undefined),inactive: -3.23%,–
